# Laboratory results published in the supplement of paper PMC8728848.
# The list shows a part of the results.
# B1: HPA (Helix pomatia), Q575S3 (protein)
# chain: MWAHLTGLLLICALSLSAAQRAQTGEIDCGSDSSWPKDPSDNPNRDNTREIVKHVTFSPQFCREPKVILSVTTLDAEHTKNLRYEARLKSVSPSGLSASCYSWHDGTIYRMKLSWLAVED
# Assays:
# Test in all cases: glycan array binding signal (z-score within array); higher = stronger binding
# Settings in all cases: glycan notation: IUPAC condensed, linker removed
# [1] = molecular target: Fuc(a1-2)[GalNAc(a1-3)]Gal(b1-4)GlcNAc(b1-3)GalNAc
# How it was run: (§1)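 Glycan array data came from 3228 arrays in the Consortium for Functional Glycomics database, and only arrays with an available protein sequence were kept. Glycan names were put into IUPAC-condensed notation, and columns mapping to the same glycan were averaged. The binding signal is a within-array Z-score, averaged across arrays of one protein sequence run at different concentrations or buffers and across linkers. A negative Z-score can be read as non-binding.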
# [2] = molecular target: Fuc(a1-2)[GalNAc(a1-3)]Gal(b1-4)GlcNAc(b1-3)[Fuc(a1-2)[GalNAc(a1-3)]Gal(b1-4)GlcNAc(b1-6)]GalNAc
# How it was run: as §1
# [3] = molecular target: Fuc(a1-2)[GalNAc(a1-3)]Gal(b1-4)GlcNAc(b1-6)GalNAc
# How it was run: as §1
# [4] = molecular target: Fuc(a1-2)[GalNAc(a1-3)]Gal(b1-4)[Fuc(a1-3)]GlcNAc
# How it was run: as §1
# [5] = molecular target: Fuc(a1-2)[GalNAc(a1-3)]Gal(b1-4)[Fuc(a1-3)]GlcNAc(b1-3)GalNAc
# How it was run: as §1
# [6] = molecular target: Fuc(a1-2)[GalNAc(a1-4)]Gal(b1-4)GlcNAc
# How it was run: as §1
# [7] = molecular target: Fuc(a1-2)[GalNAc(b1-3)]Gal
# How it was run: as §1
# Fuc(a1-3)GlcNAc = molecular target: Fuc(a1-3)GlcNAc
# How it was run: as §1
# [8] = molecular target: Fuc(a1-3)[Gal(b1-4)]Glc6S
# How it was run: as §1
# [9] = molecular target: Fuc(a1-3)[Gal(b1-4)]GlcNAc
# How it was run: as §1
# [10] = molecular target: Fuc(a1-3)[Gal(b1-4)]GlcNAc(b1-2)Man
# How it was run: as §1
# [11] = molecular target: Fuc(a1-3)[Gal(b1-4)]GlcNAc(b1-2)Man(a1-3)[Fuc(a1-3)[Gal(b1-4)]GlcNAc(b1-2)Man(a1-6)]Man(b1-4)GlcNAc(b1-4)GlcNAc
# How it was run: as §1
# [12] = molecular target: Fuc(a1-3)[Gal(b1-4)]GlcNAc(b1-2)Man(a1-3)[Fuc(a1-3)[Gal(b1-4)]GlcNAc(b1-2)Man(a1-6)]Man(b1-4)GlcNAc(b1-4)[Fuc(a1-6)]GlcNAc
# How it was run: as §1
# [13] = molecular target: Fuc(a1-3)[Gal(b1-4)]GlcNAc(b1-2)Man(a1-6)[Gal(b1-4)GlcNAc(b1-2)Man(a1-3)]Man(b1-4)GlcNAc(b1-4)GlcNAc
# How it was run: as §1
# [14] = molecular target: Fuc(a1-3)[Gal(b1-4)]GlcNAc(b1-3)Gal(b1-3)[Fuc(a1-4)]GlcNAc
# How it was run: as §1
# [15] = molecular target: Fuc(a1-3)[Gal(b1-4)]GlcNAc(b1-3)Gal(b1-4)[Fuc(a1-3)]GlcNAc
# How it was run: as §1
# [16] = molecular target: Fuc(a1-3)[Gal(b1-4)]GlcNAc(b1-3)Gal(b1-4)[Fuc(a1-3)]GlcNAc(b1-3)Gal(b1-4)[Fuc(a1-3)]GlcNAc
# How it was run: as §1
# [17] = molecular target: Fuc(a1-3)[Gal(b1-4)]GlcNAc(b1-3)GalNAc
# How it was run: as §1
# [18] = molecular target: Fuc(a1-3)[Gal(b1-4)]GlcNAc(b1-4)Gal(b1-4)[Fuc(a1-3)]GlcNAc
# How it was run: as §1
# [19] = molecular target: Fuc(a1-3)[Gal(b1-4)]GlcNAc(b1-4)Gal(b1-4)[Fuc(a1-3)]GlcNAc(b1-4)Gal(b1-4)[Fuc(a1-3)]GlcNAc
# How it was run: as §1
# [20] = molecular target: Fuc(a1-3)[Gal(b1-4)]GlcNAc(b1-6)GalNAc
# How it was run: as §1
# [21] = molecular target: Fuc(a1-3)[Gal(b1-4)]GlcNAc(b1-6)[Gal(b1-3)GlcNAc(b1-3)]Gal(b1-4)Glc
# How it was run: as §1
# [22] = molecular target: Fuc(a1-3)[Gal(b1-4)]GlcNAc6S
# How it was run: as §1
# [23] = molecular target: Fuc(a1-3)[Gal3S(b1-4)]Glc
# How it was run: as §1
# [24] = molecular target: Fuc(a1-3)[Gal3S(b1-4)]Glc6S
# How it was run: as §1
# [25] = molecular target: Fuc(a1-3)[Gal3S(b1-4)]GlcNAc
# How it was run: as §1
# [26] = molecular target: Fuc(a1-3)[Gal3S(b1-4)]GlcNAc6S
# How it was run: as §1
# [27] = molecular target: Fuc(a1-3)[GalNAc(b1-4)]GlcNAc
# How it was run: as §1
# [28] = molecular target: Fuc(a1-3)[GalNAc(b1-4)]GlcNAc6S
# How it was run: as §1
# [29] = molecular target: Fuc(a1-3)[Neu5Ac(a2-3)]Gal(b1-4)GlcNAc(b1-3)GalNAc
# How it was run: as §1
binder,measurement,setting,value
B1,glycan array binding signal (z-score),[1],2.8
same,glycan array binding signal (z-score),[2],3.69
same,glycan array binding signal (z-score),[3],2.54
same,glycan array binding signal (z-score),[4],2.72
same,glycan array binding signal (z-score),[5],-0.215
same,glycan array binding signal (z-score),[6],5.52
same,glycan array binding signal (z-score),[7],0.282
same,glycan array binding signal (z-score),Fuc(a1-3)GlcNAc,-0.267
same,glycan array binding signal (z-score),[8],-0.25
same,glycan array binding signal (z-score),[9],-0.263
same,glycan array binding signal (z-score),[10],-0.252
same,glycan array binding signal (z-score),[11],-0.262
same,glycan array binding signal (z-score),[12],-0.233
same,glycan array binding signal (z-score),[13],-0.317
same,glycan array binding signal (z-score),[14],-0.258
same,glycan array binding signal (z-score),[15],-0.249
same,glycan array binding signal (z-score),[16],-0.265
same,glycan array binding signal (z-score),[17],-0.239
same,glycan array binding signal (z-score),[18],-0.25
same,glycan array binding signal (z-score),[19],-0.271
same,glycan array binding signal (z-score),[20],-0.209
same,glycan array binding signal (z-score),[21],-0.251
same,glycan array binding signal (z-score),[22],-0.254
same,glycan array binding signal (z-score),[23],-0.25
same,glycan array binding signal (z-score),[24],-0.296
same,glycan array binding signal (z-score),[25],-0.264
same,glycan array binding signal (z-score),[26],-0.249
same,glycan array binding signal (z-score),[27],-0.257
same,glycan array binding signal (z-score),[28],-0.252
same,glycan array binding signal (z-score),[29],-0.247
